Experimental data as given in a compilation of properties of binary mixtures (doi:10.1021/acs.jced.0c01028).
Some of these densities may be calculated back from excess volumes.

Experiment: xn = mol fraction of the nth substance listed
Details: 81.5 kPa

CCCC[n+]1ccn(C)c1.N#C[S-] + CCCCC(C)O
x1 = 1
Details | mass density [kg/m3]
298.15 K | 1069.8
308.15 K | 1063.9
318.15 K | 1058
328.15 K | 1052.2
338.15 K | 1046.4

CCCCC(C)O (configuration not stated) + CCCC[n+]1ccn(C)c1.N#C[S-]
mass density [kg/m3]
Details | x2 = 0 | x2 = 0.1011 | x2 = 0.2003 | x2 = 0.2992 | x2 = 0.3988 | x2 = 0.4964 | x2 = 0.6029 | x2 = 0.6993 | x2 = 0.7996 | x2 = 0.8987
288.15 K | 818.1 | – | 890.3 | 921.2 | 949.6 | 974.9 | 1000.2 | 1021.2 | – | 1059.5
298.15 K | – | 848.9 | 883.3 | – | 943.2 | 968.8 | 994.2 | 1015.1 | 1035 | 1053
308.15 K | 802.2 | 841.2 | 875.9 | 907.4 | 936.3 | 962.2 | 987.9 | 1009.2 | – | 1047.3
318.15 K | 793.9 | – | 869.3 | – | – | 956.1 | 981.9 | 1003.1 | 1023 | 1041.1
328.15 K | 785.3 | – | – | 894.5 | 924 | 950 | 975.8 | 997.2 | 1017.3 | 1035.5
338.15 K | 776.5 | 818.5 | – | 887.5 | 917.4 | – | 969.9 | – | 1011.8 | 1030.1
